Data taken from the supplement of paper PMC4604168 (melanoma cell lines).
The list shows a part of the results. Many values rest on one well or one pass, so single values are uncertain.

test system: RVH-421; experiment: cell count relative to DMSO control; melanoma cells; higher = more viable cells; conditions: library dose: standard library concentration; 72 h
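Also: cells treated in 1,536-well plates, then fixed and DAPI-stained, with nuclei counted from automated high-throughput microscope images.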

SMILES | cell count
CC1(C)NC(=O)N(c2ccc([N+](=O)[O-])c(C(F)(F)F)c2)C1=O [nilutamide] + Oc1cc(-c2nc(-c3ccccc3)[nH]c2-c2ccncc2)ccc1Cl [L779450] (first compound 5 µM, partner dose 1 µM) | 75.9%
O=C(O)c1ccc(-c2c[nH]c3ncc(-c4ccccc4)cc23)cc1C1CCCC1 + O=C1NC(=O)/C(=C/c2ccc(-c3ccc(F)cc3O)o2)S1 [AS252424] (first compound 0.8 µM, partner dose 5 µM) | 76.2%
O=C(Nc1cccc(Cl)c1)Nc1ncc(CCNc2ncnc3ccsc23)s1 + CN(C)S(=O)(=O)c1ccc2c(c1)/C(=C/c1cc3c([nH]1)CCCC3)C(=O)N2 [SU6656] (first compound 0.004 µM, partner dose 2 µM) | 71.6%
O=c1[nH]nc(Sc2ncc([N+](=O)[O-])s2)n1-c1ccc2c(c1)OCCO2 + O=C(/C=C/c1cccnc1)NCCCCC1CCN(C(=O)c2ccccc2)CC1 [FK866] (first compound 1 µM, partner dose 0.05 µM) | 44%
O=C(O)c1ccc(-c2c[nH]c3ncc(-c4ccccc4)cc23)cc1C1CCCC1 + CC(C)CCN1c2nc(Nc3cc(F)c(O)c(F)c3)ncc2N(C)C(=O)C1C [BID1870] (first compound 0.8 µM, partner dose 1 µM) | 66.1%
O=C(O)c1ccc(-c2c[nH]c3ncc(-c4ccccc4)cc23)cc1C1CCCC1 + COc1cc2ncnc(Nc3ccc(Oc4ccccc4)cc3)c2cc1OC [SrcI1] (first compound 0.8 µM, partner dose 10 µM) | 85.4%
